# This is one part of the list.
# Test system: HSkMC (human skeletal muscle cells)
# Assay: cytotoxicity call (relative viability < 0.9)
# Settings: 10 µM
row,SMILES,cytotoxicity call
1,Cc1noc(C)c1NC(=O)Nc1cccc2c1O[C@@H](CN(C)Cc1ccc(C(F)(F)F)cc1)[C@H](C)CN([C@@H](C)CO)C2=O,inactive
2,CCOC(=O)CCn1cc(F)c(=O)[nH]c1=O,inactive
3,C[C@@H]1CN([C@H](C)CO)C(=O)c2cc(NC(=O)Nc3cccc4ccccc34)ccc2O[C@@H](C)CCCCO[C@@H]1CN(C)C(=O)c1ccccc1,inactive
4,Cn1cnc(S(=O)(=O)N[C@H]2C=C[C@@H](CC(=O)NCC3CC3)O[C@H]2CO)c1,inactive
5,COc1ccc(S(=O)(=O)N(C)C[C@H]2Oc3ccc(NS(=O)(=O)c4cccs4)cc3CC(=O)N([C@@H](C)CO)C[C@@H]2C)cc1,inactive
6,O=C(N/N=C/[C@H](O)[C@@H](O)[C@H](O)[C@H](O)CO)c1ccccc1O,inactive
7,Cc1ccccc1NC(=O)CC(C)C,inactive
8,CO[C@@H]1CN(C)C(=O)c2cc(NS(=O)(=O)c3ccccc3)ccc2OC[C@H](C)N(C(=O)NC(C)C)C[C@@H]1C,inactive
9,O=C(C[C@H]1CC[C@@H](NC(=O)CN2CCOCC2)[C@H](CO)O1)NCc1cccc(F)c1,inactive
10,Nc1nc(N)nc(-c2ccccc2)n1,inactive
11,NNC(=O)C1[C@H]2CCCC[C@@H]12 (stereo not given in full),inactive
12,CO[C@H](CN(C)C(=O)c1ccc2c(c1)OCO2)[C@H](C)CN([C@@H](C)CO)S(=O)(=O)c1ccc(Cl)cc1,inactive
13,Cc1noc(C)c1S(=O)(=O)Nc1ccc2c(c1)C(=O)N([C@H](C)CO)C[C@H](C)[C@H](CN(C)S(=O)(=O)c1c(C)noc1C)O2,inactive
14,COc1ccc(C#Cc2ccc3c(c2)O[C@@H](CN(C)C(C)=O)[C@H](C)CN([C@H](C)CO)S3(=O)=O)cc1,inactive
15,C[C@H]1CCCCO[C@H](CN(C)CC2CCCCC2)[C@@H](C)CN([C@@H](C)CO)C(=O)c2cc(NC(=O)CCC(F)(F)F)ccc2O1,inactive
16,C[C@H]1CN([C@@H](C)CO)C(=O)Cc2cc(NC(=O)Nc3ccccc3)ccc2O[C@@H]1CN(C)Cc1ccc(Cl)c(Cl)c1,active
17,C[C@@H]1CCCCO[C@@H](CN(C)C(=O)C2CCCCC2)[C@@H](C)CN([C@@H](C)CO)C(=O)c2cc(NC(=O)C3CCCCC3)ccc2O1,inactive
18,COc1ccc2c3c([nH]c2c1)[C@@H](CO)N(Cc1ccc(cc1)Cl)C[C@]13CCN(CC1)Cc1ccccc1,active
19,C[C@@H]1CN([C@H](C)CO)C(=O)Cc2cc(NC(=O)Nc3ccc(F)cc3)ccc2O[C@@H]1CN(C)Cc1ccc(-c2ccccc2)cc1,inactive
20,C[C@H](CO)N1C[C@H](C)[C@H](CN(C)C(=O)Cc2ccccc2)OCCCC[C@H](C)Oc2ccc(NC(=O)Nc3ccccc3)cc2C1=O,inactive

row,SMILES,cytotoxicity call
1,C[C@H](CO)N1C[C@H](C)[C@H](CN(C)Cc2ccc(C(F)(F)F)cc2)Oc2ccc(NC(=O)Cn3cnnn3)cc2C1=O,inactive
2,C[C@@H]1CN([C@@H](C)CO)C(=O)c2cccc(NC(=O)C3CCOCC3)c2O[C@@H]1CN(C)Cc1ccc(Oc2ccccc2)cc1,inactive
3,COC(=O)[C@@H](N)CS[C@H]1CCCCO1,inactive
4,C[C@@H]1CN([C@H](C)CO)C(=O)c2c(c3ccccc3n2C)-c2ccccc2CO[C@H]1CN(C)C(=O)Nc1ccc(-c2ccccc2)cc1,inactive
5,C[C@@H]1CCCCO[C@@H](CN(C)C(=O)NC2CCCCC2)[C@@H](C)CN([C@@H](C)CO)C(=O)c2cc(NS(=O)(=O)c3ccc(Cl)cc3)ccc2O1,inactive
6,CCCNC(=O)N(C)C[C@H]1Oc2ncc(-c3ccc(C(=O)N(C)C)cc3)cc2C(=O)N([C@H](C)CO)C[C@@H]1C,inactive
7,CCCC(=O)Nc1ccc2c(c1)C(=O)N(C)C[C@@H](OC)[C@@H](C)CN(Cc1ccc(-c3ccccn3)cc1)[C@H](C)CO2,inactive
8,Cc1noc(C)c1S(=O)(=O)Nc1cccc2c1O[C@@H](CN(C)Cc1ccc(-c3ccccc3)cc1)[C@@H](C)CN([C@@H](C)CO)C2=O,inactive
9,C[C@@H]1CCCCO[C@@H](CN(C)C(=O)CCC(F)(F)F)[C@H](C)CN([C@@H](C)CO)C(=O)c2cc(NC(=O)c3ccccc3)ccc2O1,inactive
10,C[C@H](CO)N1C[C@H](C)[C@@H](CN(C)CC2CCOCC2)Oc2cc(-c3cccnc3)ccc2S1(=O)=O,inactive
11,CNC[C@@H]1Oc2ccc(NC(=O)Cn3cnnn3)cc2CC(=O)N([C@@H](C)CO)C[C@@H]1C,inactive
12,COc1ccc(NC(=O)N(C)C[C@H]2Oc3ccc(NC(=O)Nc4ccc(C(F)(F)F)cc4)cc3C(=O)N([C@@H](C)CO)C[C@@H]2C)cc1,inactive
13,Cc1ccc(S(=O)(=O)Nc2ccc3c(c2)C(=O)N([C@@H](C)CO)C[C@@H](C)[C@@H](CN(C)S(=O)(=O)c2cccs2)O3)cc1,inactive
14,FC(F)(F)Oc1ccccc1,inactive
15,COc1ccccc1NC(=O)N(C)C[C@H]1OCc2ccccc2-c2c(n(C)c3ccccc23)C(=O)N([C@@H](C)CO)C[C@@H]1C,inactive
16,C[C@@H]1CN([C@H](C)CO)C(=O)c2cc(N(C)C)ccc2O[C@@H](C)CCCCO[C@H]1CN(C)C(=O)Nc1ccc(C(F)(F)F)cc1,inactive
17,C[C@@H]1CN([C@H](C)CO)C(=O)Cc2cc(NC(=O)Cc3cn(C)c4ccccc34)ccc2O[C@H]1CN(C)Cc1ccc(-c2ccccc2)cc1,active
18,Cc1noc(C)c1NC(=O)Nc1ccc2c(c1)C(=O)N([C@@H](C)CO)C[C@@H](C)[C@@H](CN(C)CC1CCCCC1)OCCCC[C@H](C)O2,inactive
19,C=C1CC2C3C=C(C)C4=CC(=O)CCC4(C)C3CCC2(C)C1(OC(C)=O)C(C)=O (stereo not given),inactive
20,C[C@@H]1CCCCO[C@H](CN(C)Cc2ccc(C(F)(F)F)cc2)[C@H](C)CN([C@H](C)CO)C(=O)c2cc(NS(=O)(=O)c3cn(C)cn3)ccc2O1,inactive

# Reference: the antibiotic and cytotoxicity screens of Wong et al. (2023)
